For five molecules, binding results are on record in PMC6749817.

These are yes or no findings as the source states them, for the method shown. For some assays here: In cells and extracts the contact can be indirect. Some results given as binding are weak or reduced against the parent protein; the word gives no strength. For some assays here: Where a sequence is shown, tags or fusion partners need not be part of it.

The target of assay [1] is T1, CNGC12-CT (441D-650*), the C-terminus of CNGC12, in pGBKT7 (Arabidopsis thaliana) (UniProt Q8GWD2).
T1 sequence: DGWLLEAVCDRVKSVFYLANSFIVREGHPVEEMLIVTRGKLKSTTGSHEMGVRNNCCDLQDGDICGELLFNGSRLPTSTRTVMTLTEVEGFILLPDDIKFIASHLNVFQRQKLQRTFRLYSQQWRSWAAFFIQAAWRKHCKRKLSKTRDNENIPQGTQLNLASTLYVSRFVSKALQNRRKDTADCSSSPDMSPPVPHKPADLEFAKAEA
Description: two-hybrid; yeast AH109; CNGC12 fragments in pGBKT7, CaMs/CMLs in pGADT7; growth on SD/-Trp/-Leu/-His, 29°C, 2 days; three replicates.

In assay [2] the target is T2, CNGC12-nVenus (Arabidopsis thaliana) (UniProt Q8GWD2).
T2 sequence: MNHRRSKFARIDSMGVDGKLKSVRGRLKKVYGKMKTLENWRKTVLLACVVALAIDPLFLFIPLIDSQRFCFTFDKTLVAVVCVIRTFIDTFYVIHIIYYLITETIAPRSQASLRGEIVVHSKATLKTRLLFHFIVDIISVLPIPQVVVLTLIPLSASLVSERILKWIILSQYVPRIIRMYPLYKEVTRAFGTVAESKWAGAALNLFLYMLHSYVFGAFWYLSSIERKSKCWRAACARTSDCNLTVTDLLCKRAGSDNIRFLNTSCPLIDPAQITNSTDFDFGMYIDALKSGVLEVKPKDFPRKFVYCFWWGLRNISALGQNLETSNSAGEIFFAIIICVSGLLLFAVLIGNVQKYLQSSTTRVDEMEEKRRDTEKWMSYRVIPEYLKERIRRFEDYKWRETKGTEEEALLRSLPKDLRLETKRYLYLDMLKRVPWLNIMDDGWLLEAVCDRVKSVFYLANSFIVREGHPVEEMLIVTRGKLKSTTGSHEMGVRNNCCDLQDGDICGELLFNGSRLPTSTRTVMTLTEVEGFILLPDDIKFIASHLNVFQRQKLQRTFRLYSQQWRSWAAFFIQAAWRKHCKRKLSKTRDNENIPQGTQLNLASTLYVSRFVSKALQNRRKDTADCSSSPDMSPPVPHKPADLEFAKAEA
Description: split reporter; BiFC (nVenus/cCFP) in Arabidopsis mesophyll protoplasts, 16-20 h at room temperature, confocal microscopy.

In assay [3] the target is T3, CNGC12 565R-594P (IQ domain) in pGBKT7 (Arabidopsis thaliana) (UniProt Q8GWD2).
T3 sequence: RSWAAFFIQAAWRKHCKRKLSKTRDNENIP
Description: two-hybrid; yeast AH109; CNGC12 fragments in pGBKT7, CaMs/CMLs in pGADT7; growth on SD/-Trp/-Leu/-His, 29°C, 2 days; three replicates.

Assay [4] deals with T4, CNGC12 565R-650* (the C-terminus of CNGC12 without two CNBDs) in pGBKT7 (Arabidopsis thaliana) (UniProt Q8GWD2).
T4 sequence: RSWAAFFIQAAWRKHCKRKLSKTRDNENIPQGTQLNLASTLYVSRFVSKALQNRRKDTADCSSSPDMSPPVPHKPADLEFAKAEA
Described as above.

Assay [5] has as its target T5, CNGC12 550R-650* (the C-terminus of CNGC12 without the first CNBD) in pGBKT7 (Arabidopsis thaliana) (UniProt Q8GWD2).
T5 sequence: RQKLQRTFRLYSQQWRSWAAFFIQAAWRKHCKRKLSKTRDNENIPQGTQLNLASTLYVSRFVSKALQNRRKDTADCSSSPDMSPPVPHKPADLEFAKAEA
Described as above.

Assay [6] concerns the target GST-CaM1 (Arabidopsis thaliana) (UniProt P0DH95). Description: pull-down; purified GST-CaM1 or GST on glutathione agarose beads, mixed with 1 ml cell lysate containing His-tagged CNGC12-CT, 4°C overnight; five washes with PBS; immunoblot with anti-His; only the target purified.

Regarding “CaM6 (full open reading frame) in pGADT7 (from UniProt Q03509 1-149)”, in assay [1], the binding entry was “binds”.

With CaM1-cCFP (from UniProt P0DH95 1-149), the binding result in assay [2] is recorded as “binds”.

Take “CaM1 (full open reading frame) in pGADT7 (from UniProt P0DH95 1-149)”: the binding result in assay [1], in assay [3], in assay [4] and in assay [5] was “binds” in each case.

B1: CNGC11-cCFP (protein, UniProt Q9SKD6 1-621)
chain: MNLQRRKFVRLDSTGVDGKLKSVRGRLKKVYGKMKTLENWRKTVLLACVVALAIDPLFLFIPLIDSQRFCFTFDKTLVAVVCVIRTFIDTFYVIHIIYYLITETIAPRSQASLRGEIVVHSKATLKTRLLFHFIVDIISVLPIPQVVVLTLIPLSASLVSERILKWIILSQYVPRIIRMYPLYKEVTRAFGTVAESKRVGAALNFFLYMLHSYVCGAFWYLSSIERKSTCWRAACARTSDCNLTVTDLLCKRAGSDNIRFLNTSCPLIDPAQITNSTDFDFGMYIDALKSGVLEVKPKDFPRKFVYCFWWGLRNISALGQNLETSNSAGEIFFAIIICVSGLLLFAVLIGNVQKYLQSSTTRVDEMEEKKRDTEKWMSYREIPEYLKERIRRFEDYKWRRTKGTEEEALLRSLPKDLRLETKRYLFLKLLKKVPLLQAMDDQLLDALCARLKTVHYTEKSYIVREGEPVEDMLFIMRGNLISTTTYGGRTGFFNSVDLIAGDSCGDLLTWALYSLSSQFPISSRTVQALTEVEGFVISADDLKFVATQYRRLHSKQLQHMFRFYSLQWQTWAACFIQAAWKRHCRRKLSKALREEEGKLHNTLQNDDSGGNKLNLGAAIYA
Consider B1, for which, in assay [2], the binding entry is “no binding”.

B2: His-CNGC12-CT (441D-650*) (domain or fragment, UniProt Q8GWD2 441-649)
chain: DGWLLEAVCDRVKSVFYLANSFIVREGHPVEEMLIVTRGKLKSTTGSHEMGVRNNCCDLQDGDICGELLFNGSRLPTSTRTVMTLTEVEGFILLPDDIKFIASHLNVFQRQKLQRTFRLYSQQWRSWAAFFIQAAWRKHCKRKLSKTRDNENIPQGTQLNLASTLYVSRFVSKALQNRRKDTADCSSSPDMSPPVPHKPADLEFAKAEA
Regarding B2, in assay [6], the binding entry was “binds”.
